Laboratory results: the supplement of paper PMC4723716
± gives the uncertainty stated by the source. Whole data set: some 9,900 compounds, median “viability index relative to DMSO control” near 1, cut for the lowest 2% near 0.85. The list shows a part of the results.

Tested on: Plasmodium falciparum NF54 stage V gametocytes
Assay: viability index relative to DMSO control (fraction); higher = less gametocyte killing
Settings: 2.5 µM, library set: Broad Institute DOS, incubation time: 72 h
Procedure, shortened: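 Compound at 2.5 µM was incubated for 72 hr at 37°C under low oxygen with P. falciparum NF54 stage V gametocytes (0.75% gametocytemia, 1.25% hematocrit, 10 µl, serum-free screening medium) in 1,536-well plates. Staining used 3 µl of 2.5 µM MitoTracker Red CMXRos plus 0.13% saponin for one to two hours, and red particles of 20–70 µm2 were counted in one imaged field per well. Each viability index is that count relative to the plate mean of solvent-only wells.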

SMILES | viability index
C[C@H]1COCc2cn(nn2)CCCC(=O)N1 | 1 ± 0.045
CO[C@@H]1CN(C)C(=O)c2ccc(NC(=O)c3ccccc3F)cc2OC[C@@H](C)N(C)C[C@H]1C | 1.11 ± 0.044
CC(C)CC#Cc1ccc([C@H]2[C@@H](CO)N3C(=O)CN(C(=O)Nc4cc(F)ccc4F)C[C@H]23)cc1 | 1.04 ± 0.077
COc1cccc(S(=O)(=O)N2C[C@H](O)COC[C@H]3O[C@H](CC(=O)NCCCN4CCOCC4)CC[C@@H]32)c1 | 1.061 ± 0.0083
O=C(C1CCOCC1)N1CC(=O)N2[C@H](CO)[C@@H](c3ccc(/C=C/c4ccccc4)cc3)[C@@H]2C1 | 1.05 ± 0.082
C[C@H]1CCCCO[C@@H](CN(C)CC2CC2)[C@@H](C)CN([C@@H](C)CO)C(=O)c2cc(NC(=O)c3ccccc3)ccc2O1 | 1.08 ± 0.016
COC(=O)[C@H]1[C@H](CO)[C@H]2Cn3c(ccc(C4=CCCC4)c3=O)[C@H]2N1C(=O)Cc1cccnc1 | 1.01 ± 0.14
CN1CCN(C(=O)c2cc3c(c(-c4cccc(C5=CCCC5)c4)n2)[C@@H](CCO)N([S@](=O)C(C)(C)C)C3)CC1 | 0.991 ± 0.024
CNC[C@H]1Oc2c(NC(=O)Nc3cccc4ccccc34)cccc2C(=O)N([C@@H](C)CO)C[C@H]1C | 0.9539 ± 0.0054
C[C@H]1CN([C@@H](C)CO)C(=O)CCCn2nncc2CO[C@@H]1CN(C)C(=O)Nc1ccccc1C(F)(F)F | 0.977 ± 0.062
N#C[C@H]1[C@H](c2ccccc2)[C@@H](CO)N1C(=O)Nc1cccc(F)c1 | 1.07 ± 0.081
C[C@H](CO)N1C[C@H](C)[C@H](CN(C)S(=O)(=O)c2ccc(-n3cccn3)cc2)OCc2cn(nn2)CCCC1=O | 1.12 ± 0.042
C[C@H](CO)N1C[C@H](C)[C@@H](CN(C)C(=O)Nc2ccccc2)OCCCC[C@H](C)Oc2ccc(NC(=O)Nc3ccccc3)cc2C1=O | 1.03 ± 0.079
COc1ccc2c3c([nH]c2c1)[C@@H](CO)N(C[C@]31CN(CC2CCOCC2)C1)S(C)(=O)=O | 1.07 ± 0.027
COc1cccc(-c2ccc3n(c2=O)C[C@H]2[C@H](CO)[C@@H](C(=O)NCC4CC4)[C@@H]3N2S(C)(=O)=O)c1 | 1.08 ± 0.053
O=C(CCN1CCCCC1)N[C@H]1CC[C@@H](CC(=O)N2CCC(Cc3ccccc3)CC2)O[C@@H]1CO | 1.116 ± 0.0016
O=C(N[C@@H]1C=C[C@H](CC(=O)N2CCC(Cc3ccccc3)CC2)O[C@H]1CO)c1cnccn1 | 0.958 ± 0.064
C[C@@H]1CCCCO[C@H](CN(C)C(=O)Nc2ccc(C(F)(F)F)cc2)[C@H](C)CN([C@H](C)CO)C(=O)c2cc(NS(=O)(=O)c3cn(C)cn3)ccc2O1 | 1.08 ± 0.11
C[C@@H]1CN([C@@H](C)CO)C(=O)CCCn2nncc2CO[C@@H]1CN(C)C(=O)NC1CCCC1 | 1.01 ± 0.082
